Measurements published in PubChem BioAssay AID651820 (National Center for Advancing Translational Sciences (NCATS), 2012).
“And” between values parts separate entries of the source, which are not always exact repeats. Equal entries are not always repeated. The campaign covered roughly 340,000 compounds. About 12,000 (3.5%) were called active. This list was built around the results that the source calls inconclusive (neither active nor inactive); the mix of calls is not that of the screen. Calls come from the whole dose curve; as a rule, active = well fitted inhibition curve with a large enough effect; inconclusive = small, poorly fitted or top-dose-only effect, or another doubt; inactive = no such curve, though single readings can be large or run the other way. Potencies of inconclusive entries are doubtful fits and often do not repeat.

Assay: qHTS Assay for Inhibitors of Hepatitis C Virus (HCV)
Conditions: Huh7.5.1 HCVcc-Cre (HCVcc is cell-culture hepatitis C virus) infection, luciferase reporter, 44 h; activity change, negative = inhibition: at 41.8 µM (top of the series)
In short: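 Infectious HCV cell culture screen: compound-treated cells (1,000/well, pre-plated 4 h) are infected with HCVcc-Cre at roughly 0.5 moi and grown 44 h. Infection is quantified by luciferase signal after 15 min substrate incubation at room temperature.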
% is set by controls: 0 for no effect and ±100 for the full control effect; potency is the fitted concentration of half-maximal effect; tags give direction and shape of the fitted curve.

Row | SMILES | Potency | activity change, negative = inhibition
1 | c1ccc2cc3c(NCCN4CCOCC4)ccnc3cc2c1 | inconclusive: 31.6 µM [inhibitor, single point] | 
2 | Cc1ccc(Cn2cnc3ccccc32)cc1C | inconclusive: 31.6 µM [inhibitor, single point] | 
3 | O=C(CSc1nc2c([nH]c3ccccc32)c(=O)n1-c1cccc(Cl)c1)N1CCOCC1 | inconclusive: 2.24 µM [inhibitor, full curve] and inconclusive: 562 nM [inhibitor, full curve, poor fit] | 
4 | Cn1cc(C(=O)c2ccc(Cl)cc2Cl)cc1C(=O)NN | inconclusive: 11.2 µM [inhibitor, partial curve] | 
5 | Cn1c(=O)c(-c2ccccc2[N+](=O)[O-])c(Cl)c2ccccc21 |  | inactive: -16.1%
6 | CCOC(=O)N1CCN(C(=O)CS(=O)Cc2nc(-c3ccc(OC)c(OC)c3)oc2C)CC1 (centres undefined) |  | inactive: -11.7%
7 | Cc1cc(S(=O)(=O)N2CCN(c3ccccc3F)CC2)ccc1-n1cnnn1 | inconclusive: 31.6 µM [inhibitor, single point] | 
8 | CCCCCCCC(=O)NC(Nc1ccc(S(N)(=O)=O)cc1)C(Cl)(Cl)Cl (centres undefined) | inconclusive: 11.2 µM [inhibitor, single point] | 
9 | N/C(=N/O)c1nc(N2CCCC2)nc(N2CCCC2)n1 | inconclusive: 31.6 µM [inhibitor, single point] | 
10 | COc1ccc(C2(c3ccc(O)cc3O)CC(c3ccccc3Cl)NC(=S)N2)cc1 (centres undefined) |  | inactive: -5.78%
11 | COc1ccc(CN2CCN(C(=O)COc3ccc4ccccc4c3)CC2)c(OC)c1 | inconclusive: 17.8 µM [inhibitor, partial curve, poor fit] | 
12 | CCCS(=O)(=O)N1CCCC(C(=O)N2CCC(Cc3ccccc3)CC2)C1 (centres undefined) | inconclusive: 25.1 µM [inhibitor, single point] | 
13 | O=C(Cn1c(=O)oc2cc(S(=O)(=O)N3CCCC3)ccc21)N1CCN(c2ccccc2F)CC1 | inconclusive: 31.6 µM [inhibitor, single point] | 
14 | CC(NC(=O)[C@H](Cc1c[nH]c2ccccc12)NC(=O)[C@@H]1Cc2ccccc2CN1)c1ccccc1 (some centres undefined) | inconclusive: 7.94 µM [inhibitor, partial curve, poor fit] | 
15 | N#Cc1ccc(CN2CCN(C(=O)c3cccc(S(=O)(=O)N4CCCCCC4)c3)CC2)cc1 | inconclusive: 8.91 µM [inhibitor, partial curve] | 
16 | O=C(CCc1ccccc1)Nc1cc2c(cc1C(=O)O)OCCCO2 |  | inactive: 11.3%
17 | Cc1ccccc1C(=O)N1CCN(c2ccc([N+](=O)[O-])c(NCc3ccco3)c2)CC1 | active: 12.6 µM | 
18 | CC1CC2(C)Oc3ccccc3CC2C(C)C1CNCCCN(C)C (centres undefined) | inconclusive: 1.41 µM [inhibitor, full curve] | 
19 | COc1ccc(CCNC(=O)CCCn2c(=O)c3cccn3c3cccnc32)c(OC)c1 | inconclusive: 1.78 µM [inhibitor, partial curve] | 
20 | O=C1c2cccc3cccc(c23)C(=O)N1CCCN1CCN(c2ccc(F)cc2)CC1 | inconclusive: 12.6 µM [inhibitor, partial curve] | 
21 | CC12CCC(C(=O)N(c3ccc(Cl)cc3)C1=O)C2(C)C (centres undefined) |  | inactive: 5.76%
22 | CCN(CC)S(=O)(=O)c1ccc(NC(=O)c2cc(=O)[nH]c3ccccc23)cc1 | inconclusive: 5.01 µM [inhibitor, partial curve] | 
23 | Nc1cc2c3c(cccc3c1)C(=O)N(CCN1CCCC1)C2=O | active: 10 µM | 

Row | SMILES | Potency | activity change, negative = inhibition
24 | CCOC(=O)C1=C(COC(=O)/C=C/c2ccc(OC)cc2)NC(=O)NC1C (centres undefined) | active: 3.16 µM | 
25 | CCc1ccc(C(=O)CN(C#N)c2nc(C)cc(C)n2)cc1 | inconclusive: 22.4 µM [inhibitor, single point] | 
26 | c1cncc(-c2nc(NCC3COc4ccccc4O3)c3ccccc3n2)c1 (centres undefined) | active: 11.2 µM | 
27 | CCO/N=C1\C(=O)N(c2ccccc2)c2ccccc21 | inconclusive: 11.2 µM [inhibitor, partial curve] | 
28 | O=[N+]([O-])c1ccc(Cl)c(/C=N/Nc2nc(N3CCOCC3)nc(N3CCOCC3)n2)c1 | inconclusive: 2.24 µM [inhibitor, full curve, poor fit] | 
29 | CC(=O)c1c(C)n(-c2ccccc2)c2ccc(O)cc12 | inconclusive: 11.2 µM [inhibitor, partial curve] | 
30 | COc1ccc2nc(NC(=O)c3ccc(Br)s3)sc2c1 |  | inactive: -20.9%
31 | COc1ccccc1N1CCN(C(CNS(=O)(=O)c2ccccc2)c2ccccc2)CC1 (centres undefined) | inconclusive: 10 µM [inhibitor, partial curve] | 
32 | CCOc1ccc(/C=N/NC(=O)Cc2csc(Nc3cccc(C(F)(F)F)c3)n2)cc1 | inconclusive: 28.2 µM [inhibitor, single point] | 
33 | Cc1cccc(OCc2nnc(SCC(=O)Nc3cccc(C(=O)N4CCOCC4)c3)n2C)c1 | inconclusive: 31.6 µM [inhibitor, single point] | 
34 | Cc1cc(C(=O)CSc2nnnn2-c2ccccc2)c(C)n1-c1ccc2c(c1)OCO2 | inconclusive: 31.6 µM [inhibitor, single point] | 
35 | CCOC(=O)N1CCC(NC(=O)CC2C(=O)NCCN2Cc2ccc(C)cc2)CC1 (centres undefined) |  | inactive: -2.12%
36 | c1ccc(/N=C2\N=C(Nc3ccccn3)c3ccccc32)nc1 | inconclusive: 4.47 µM [inhibitor, single point] | 
37 | O=Cc1c(NCc2ccc(F)cc2)c2ccccc2[nH]c1=O |  | inactive: 4%
38 | Cc1ccc(C(C(=O)NC2CCCCC2)N(C(=O)c2csnn2)C2CC2)cc1 (centres undefined) |  | inactive: 2.08%
39 | CCCc1ccc(C(=O)O/N=C(\N)c2ccccn2)cc1 |  | inactive: 0.504%
40 | O=C(Nc1cc(Oc2ccccc2)cc([N+](=O)[O-])c1)C12CC3CC(C1)CC(n1cnc(Cl)n1)(C3)C2 | active: 10 µM | 
41 | COCCCN1CN=C(Nc2nc3ccccc3o2)NC1 |  | inactive: 17.4%
42 | COc1ccc(NS(=O)(=O)c2cccc(C(=O)N/N=C/c3c(F)c(F)c(F)c(F)c3F)c2)cc1 | inconclusive: 31.6 µM [inhibitor, single point] | 
43 | CCOC(=O)COc1ccc2c(=O)c(-c3ccc(OC)c(OC)c3)c(C(=O)OCC)oc2c1 | inconclusive: 31.6 µM [inhibitor, single point] | 
44 | O=C(N/N=C/c1cccc2cccnc12)c1ccccc1O | inconclusive: 3.55 µM [inhibitor, full curve] | 
45 | O=C(CNC(=O)c1ccccc1)Nc1ccc(Br)cc1C(=O)c1ccccc1 | inconclusive: 31.6 µM [inhibitor, single point] | 
46 | CCc1ccc(Nc2ccc(S(=O)(=O)N3CCOCC3)cc2[N+](=O)[O-])cc1 | inconclusive: 10 µM [inhibitor, partial curve] | 

Row | SMILES | Potency | activity change, negative = inhibition
47 | COC(=O)Oc1ccc(/C=N/NC(=O)CSCc2ccccc2Br)cc1OC | inconclusive: 10 µM [inhibitor, partial curve] | 
48 | CC(OC(=O)C1CSC2(C)CCC(=O)N12)C(=O)Nc1ccc(F)cc1 (centres undefined) |  | inactive: 9.1%
49 | C(=C1c2ccccc2-c2ccccc21)c1ccccn1 | inconclusive: 31.6 µM [inhibitor, single point] | 
50 | O=C(OCCOc1ccccc1Cl)c1ccc(-n2cnnn2)cc1 |  | inactive: 0.971%
51 | COc1cc2nc(SCC(=O)c3ccc(Br)cc3)n3nc(C)nc3c2cc1OC | inconclusive: 5.62 µM [inhibitor, single point] | 
52 | O=C(N/N=C\c1ccc(Cl)cc1)C1=NOC2COC3(CCN(c4ccc([N+](=O)[O-])cc4)CC3)OCC12 (centres undefined) | inconclusive: 2.51 µM [inhibitor, full curve] | 
53 | CCOC(=O)C1C(=O)NC(C(=O)OCC)(C(=O)OCC)C1CC (centres undefined) | inconclusive: 31.6 µM [inhibitor, single point] | 
54 | O=C(O)C1=C[C@H](c2ccc(F)cc2)C[C@H](OCCCCO)O1 |  | inactive: 16.7%
55 | Cc1cc(N/N=C/c2ccc(Cl)cc2)nc(NCc2ccccc2)n1 | active: 35.5 µM | 
56 | O=C(Nc1ccccc1)c1ccc(NCC2CCCO2)c([N+](=O)[O-])c1 (centres undefined) |  | inactive: 2.5%
57 | O=C(Nc1cccc2cccnc12)c1ccccc1Br |  | inactive: -29.6%
58 | O=C(Nc1nc(-c2ccc(Cl)cc2)cs1)NC1CCCCC1 | inconclusive: 14.1 µM [inhibitor, single point] | 
59 | Cc1ccc(OCC(=O)NNC(=O)c2cc3ccccc3o2)cc1 |  | inactive: 5.32%
60 | CCc1c(C)nc(SCC(=O)c2cccs2)c(C#N)c1C | inconclusive: 10 µM [inhibitor, single point] | 
61 | O=C(C[n+]1cn(C(F)F)c2ccccc21)c1ccc(OC(F)F)cc1 |  | inactive: 5.41%
62 | O=C(CSc1nnc(SCc2cccc3ccccc23)s1)N/N=C/c1c[nH]c2ccccc12 | inconclusive: 15.8 µM [inhibitor, single point] | 
63 | COCCn1c(SCC(=O)NCc2ccccc2)nc2ccccc21 |  | inactive: -19.1%
64 | Cc1ccc2cc(C(c3nnnn3CC3CCCO3)N3CCc4ccccc4C3)c(=O)[nH]c2c1 (centres undefined) | inactive | 
65 | COc1ccc(C(OCC(O)CNCCc2ccccc2)c2ccc(OC)cc2)cc1 (centres undefined) | inconclusive: 14.1 µM [inhibitor, single point] | 
66 | FC(F)(F)c1cnc(NNC(=S)Nc2ccc(Cl)cc2)c(Cl)c1 | inconclusive: 10 µM [inhibitor, partial curve] | 
67 | CC/C(=N\NC(=O)CCC(=O)NCc1ccccc1)c1ccc(O)cc1 | inconclusive: 3.55 µM [inhibitor, full curve, poor fit] | 
68 | COc1cc(OC)c(C2C(C#N)=C(N)OC3=C2C(=O)CC(C)C3)cc1OC (centres undefined) |  | inactive: 2.9%
69 | Cc1ccc(S(=O)(=O)NCCC(=O)NC(C)CCc2ccccc2)cc1 (centres undefined) | inconclusive: 10 µM [inhibitor, single point] | 
